Among the data in article PMC11176775 are Kd values, retold here.

The assay concerns the target GST-tag DNA polymerase β, full-length (1–335 amino acids) (UniProt P06746). Put plainly: SPR; Biacore X-100, 25 °C; GST-tag polβ or APE1 immobilised on CM5 chip (EDC/NHS, 10 mM sodium acetate pH 4.0), his-tag LIG1 or LIGIIIα proteins as analytes; 10 mM Hepes pH 7.4, 150 mM NaCl, 3 mM EDTA, 0.005% P20; 1:1 (Langmuir) model; polβ truncated mutants (Fig. S2) tested likewise, orientation not given.

In the case of “DNA ligase 1 full-length ([…] amino acids) (a stretch of the chain, chain not printed) (enzyme; other documents disagree on this pair)”, the Kd – broadly, the concentration at which binding is half-saturated – turned out to be 142 nM. This counts as sub-micromolar.
